The campaign covered roughly 52,000 compounds. About 4,300 (8.3%) were called active. No stated cut-off is given here; in the data, active means survival mostly below about 52% (no sharp cut-off); inactive means mostly above about 56%. Some of the results follow.
test system: DeltatarO mutant; assay: S. aureus survival, RN4220 and DeltatarO strains – OD600, teichoic acid synthesis inhibitors, primary screen (AID 463173); details: S. aureus RN4220 wild type/DeltatarO growth, OD600, 18 h, stronger effect = lower value, screened at 18.75 µg/mL (by protocol)

Structure (SMILES)	survival
CCCCNC(=O)CCn1c(=O)c2cccn2c2cccnc21	inactive: 103%
COC(=O)c1cn(CC(=O)Nc2ccc(OC)cc2)c2ccccc12	inactive: 91%
CCN(C(=O)c1c(C)oc2ncn(CC(C)C)c(=O)c12)c1cccc(Cl)c1	inactive: 88%
COc1ccc(C)cc1NC(=O)c1cc(S(=O)(=O)N2CCc3ccccc3C2)ccc1F	inactive: 64%
Cc1oc(-c2ccc(C(=O)NCc3ccccc3Cl)cc2)nc1CN1CCc2ccccc21	inactive: 70%
CCCn1c(CCC(=O)Nc2ccc(C)c(Cl)c2)nc2cccnc21	inactive: 71%
O=C(Oc1ccc(Cl)cc1)c1ccc2snnc2c1	inactive: 99%
O=C(O)c1cnc2ccccn2c1=O	inactive: 93%
Cc1ccc(C)c(Nc2nn3c(=O)c4cc5c(cc4nc3s2)OCO5)c1	active: 37%
CCc1ccc(NC(=O)CSc2nc(=O)n(Cc3ccncc3)c3c2CCC3)cc1	inactive: 85%
CCN1CCN(CCCNC(=O)Cn2c(-c3cccs3)cc3cc(F)ccc32)CC1	inactive: 113%
O=C(COCc1cc(-c2ccc3c(c2)OCO3)on1)Nc1cc(C(F)(F)F)ccc1Cl	inactive: 124%
Cc1cc2c(cc1S(=O)(=O)CCC(=O)N1CCCCC1C)OCC(=O)N2 (stereo not drawn)	inactive: 81%
CCOC(=O)N1CCc2c(sc(NCc3cccs3)c2C(=O)Nc2ccc(OC)cc2OC)C1	inactive: 90%
COc1ccccc1N1CCN(S(=O)(=O)CCNC(=O)Cc2ccc(Cl)cc2)CC1	inactive: 84%
O=c1c(S(=O)(=O)c2ccccc2)cn(Cc2cccc(F)c2)c2cc(N3CCCC3)c(F)cc12	inactive: 104%
CCCS(=O)(=O)N1CC(=O)N(c2ccc(C)cc2C)C(C)(C(=O)NC2CCCCCC2)C1 (stereo not drawn)	inactive: 67%
O=C(Cn1c(=O)nc(-c2ccccc2)c2cc(Cl)ccc21)NCc1ccc(Cl)cc1	inactive: 40%
COc1ccc(CCNS(=O)(=O)c2cc(-c3onc(C)c3C)ccc2OC)cc1OC	active: -1%
CCOc1ccc(CCNC(=O)c2ccc3c(c2)N(Cc2ccccc2F)C(=O)c2ccccc2S3=O)cc1OCC (stereo not drawn)	inactive: 82%
O=C(CCS(=O)(=O)c1cc2c3c(c1)CCN3C(=O)CC2)Nc1cccc(Br)c1	inactive: 83%
O=C(Nc1cnn(Cc2ccc(Cl)cc2Cl)c1)c1noc2c1CCc1ccccc1-2	active: 47%

Structure (SMILES)	survival
COc1cc(OC)c(NC(=O)C(Cc2ccccc2)NS(=O)(=O)c2cccc3nsnc23)cc1Cl (stereo not drawn)	inactive: 71%
CN(C)c1ccc(NC(=O)CSc2nc3ccsc3c(=O)n2CCCCCC(=O)O)cc1	inactive: 96%
Cc1c(C(=O)N(Cc2ccco2)Cc2ccccc2Cl)oc2ccc(F)cc12	active: 42%
COCCN1Cc2cc3cc4c(cc3nc2SC1=Nc1cccc(OC)c1)OCO4	inactive: 87%
Cc1ccc(NC(=O)C(C)Sc2nc(N)cc(N)n2)c(C)c1 (stereo not drawn)	inactive: 76%
COc1ccc(OC(C)C(=O)NCc2nc(-c3cccc(C)c3)no2)cc1 (stereo not drawn)	inactive: 61%
CCS(=O)(=O)c1ccccc1C(=O)Nc1ccc(-c2nc3ccccc3s2)cc1	inactive: 78%
CC(C)CCNC(=O)CN1C(=O)c2cccnc2Sc2ccccc21	inactive: 84%
COc1ccc(CC(=O)Nc2cc(-c3cn4cccnc4n3)ccc2OC)cc1	inactive: 91%
CCCCC(=O)NC1(C(F)(F)F)C(=O)Nc2c1c(=O)[nH]c(=O)n2-c1ccc(C)c(C)c1 (stereo not drawn)	inactive: 69%
O=C(Nc1ccc2nc(SCCOc3ccccc3Cl)sc2c1)c1ccc2c(c1)OCO2	inactive: 68%
Cc1ccc(NC(=O)c2ccc(CNS(=O)(=O)c3ccc4c(c3)C(C)(C)C(=O)N4C)cc2)cc1F	inactive: 57%
CCOc1ccc(CCNC(=O)CSc2nnnn2-c2ccc(C)cc2C)cc1OCC	inactive: 56%
CCOC(=O)C1=C(CN(C)Cc2ccccc2)NC(=O)NC1c1ccc(OC)cc1 (stereo not drawn)	inactive: 94%
CC(C)COC(=O)c1nnsc1NC(=O)Nc1ccccc1	inactive: 76%
O=C(CSc1nnc(COc2ccccc2)o1)N1CCCC1	inactive: 80%
COc1ccc2c(c1)c1c(c(=O)n(-c3ccccc3)c(=O)n1CC(=O)NCc1ccc(C)cc1)n2C	inactive: 83%
CSc1nn(Cc2cccc(Cl)c2)c(N(C(C)=O)C(C)=O)c1S(=O)(=O)c1ccccc1	inactive: 73%
COc1ccc(CC(=O)N(Cc2nc(-c3ccc(C)cc3)no2)C(C)C)cc1	active: 31%
O=C(CSc1nc2nccnc2c(=O)n1CCc1c[nH]c2ccccc12)Nc1ccc(F)cc1	active: 29%
COc1ccc(C2C(=O)N(C3CCC(C)CC3)CC(=O)N2C2CCCC2)cc1OC (stereo not drawn)	active: -2%
COc1cccc(NC(=O)CSC2=Nc3ccccc3C3=NC(CC(=O)NCc4ccc5c(c4)OCO5)C(=O)N23)c1 (stereo not drawn)	inactive: 100%

Structure (SMILES)	survival
CCCCNC(=O)c1cnc2sc(N3CCCCCC3)nn2c1=O	inactive: 79%
COc1ccc(C)cc1NC(=O)Nc1ccccc1OCc1cc(=O)n2ccccc2n1	inactive: 101%
c1ccc(-n2nnnc2NC2CCCCCC2)cc1	inactive: 85%
Cc1cc(C)c(NC(=O)C(=O)NCC(c2cccnc2)N2CCN(Cc3ccccc3)CC2)c(C)c1 (stereo not drawn)	inactive: 86%
O=C(c1cccnc1)N1N=C(C(F)(F)F)CC1(O)c1cccnc1 (stereo not drawn)	inactive: 93%
Cc1ccccc1-c1noc(-c2ccc(N3CCN(C)CC3)c([N+](=O)[O-])c2)n1	inactive: 72%
Cc1c(C(=O)OC2CCCCCC2)[nH]c2c1C(=O)CC(c1ccc(N(C)C)cc1)C2 (stereo not drawn)	inactive: 118%
COc1cc(OC)cc(C(=O)Nc2cc(-c3nc4cccnc4s3)ccc2C)c1	active: 43%
CCC(C(=O)Nc1ccc(C(=O)OC)cc1)n1nc(-c2ccc(C)c(C)c2)ccc1=O (stereo not drawn)	inactive: 86%
CCOc1ccc(Nc2sc(C(=O)c3cccc(OC)c3)c(N)c2S(=O)(=O)c2ccccc2)cc1	inactive: 84%
COc1ccc(NC(=O)C2CCN(S(=O)(=O)c3ccc4c(c3)CCCC(=O)N4)CC2)c(OC)c1	inactive: 115%
O=C(O)CC1CCS(=O)(=O)C1 (stereo not drawn)	inactive: 62%
Cn1c(=O)c(=O)n(C)c2cc(S(=O)(=O)N3CCCC3C(=O)Nc3ccc(F)cc3)ccc21 (stereo not drawn)	inactive: 87%
Cc1ccc(NC(=O)CSc2ccc(-c3ccccn3)nn2)cc1F	inactive: 49%
COc1ccc(S(=O)(=O)N(CC(=O)NCCSCc2ccccc2)c2ccc(C)cc2)cc1	inactive: 54%
CCOc1ccc(CNC(=O)Cn2ccc3cc(S(=O)(=O)N4CCCCC4)ccc32)cc1	inactive: 96%
COc1ccc(-n2cc(C(=O)OCc3ccc(Cl)cc3)c3ccccc3c2=O)cc1	inactive: 100%
CC(C)CNC(=O)c1cccc(NC(=O)C(C)C)c1	inactive: 57%
CN(C)c1ccc(C(CNS(=O)(=O)c2ccc(F)cc2)N2CCOCC2)cc1 (stereo not drawn)	inactive: 92%
Cc1sc(-n2c(C)cc(/C=C(\C#N)C(=O)NCc3ccco3)c2C)c(C#N)c1C	inactive: 84%
Cc1cc2cc3c(cc2nc1SCC(=O)OC(C)C)OCO3	inactive: 91%
COc1ccccc1NC(=O)C(Cc1ccccc1)NS(=O)(=O)c1cccc2nsnc12 (stereo not drawn)	inactive: 89%

Structure (SMILES)	survival
COc1cc(Cl)c(C)cc1NC(=O)c1sc2nc(C)cc(C)c2c1N	inactive: 99%
COc1cc(C(=O)N(Cc2cccnc2)c2nc3cc(C)c(C)cc3s2)cc(OC)c1OC	inactive: 49%
CCOC(=O)COc1ccc(F)cc1C(=O)c1ccn2nc(-c3ccc(C)cc3)cc2n1	inactive: 80%
CN1C(=O)C(C)(C)c2cc(S(=O)(=O)N3CCCC3C(=O)Nc3ccc(F)cc3)ccc21 (stereo not drawn)	inactive: 55%
COC(=O)c1ccc(Cl)cc1NC(=O)N(Cc1ccc(OC)cc1)C1CCN(C(C)=O)CC1	active: -5%
CC(=O)Nc1n[nH]c(-c2ccc(C)cc2)n1	inactive: 89%
CCCCOC(=O)c1cccc(NC(=O)/C=C/c2ccccc2Cl)c1	active: 14%
COc1ccc(OC)c(NC(=O)CSc2nc3ccccc3c(=O)n2CCC(=O)NC2CCCCC2)c1	inactive: 94%
O=C(Cn1c(SCC(=O)Nc2ccc(F)cc2)nc2ccccc21)NCc1ccccc1Cl	inactive: 101%
N#Cc1c(C(F)(F)F)cc(-c2cccs2)nc1SCC(=O)Nc1cccc(C(F)(F)F)c1	inactive: 48%
COc1ccc(S(=O)(=O)N(Cc2nc(-c3ccc(Cl)cc3)no2)C2CCCCC2)cc1	inactive: 106%
Cc1ccc(S(=O)(=O)NCc2ccc(C(=O)NCCc3cccc(C)c3)cc2)cc1	inactive: 86%
Cc1ccc(Cn2c(=O)n(-c3cc(C)cc(C)c3)c(=O)c3oc4ccccc4c32)cc1	inactive: 76%
O=C(c1ccccc1Br)N1CCC(c2nc3ccccc3o2)CC1	inactive: 82%
O=S(=O)(c1ccc(-n2cnnn2)cc1)N1CCN(c2cccc(C(F)(F)F)c2)CC1	inactive: 70%
CCC1(c2csc(Nc3ccccc3C)n2)CCC(=O)O1 (stereo not drawn)	inactive: 89%
Cc1oc(C)c2c(=O)cc(-c3ccc4c(c3)OCO4)cc(OC(=O)c3cccc(Cl)c3)c12	inactive: 94%
COc1ccc(-n2ncc3c2ncn2nc(Cc4ccccc4)nc32)cc1	inactive: 78%
Cc1ccccc1CNCc1c(C(=O)O)c(C)n(Cc2ccc(F)cc2Cl)c1C	inactive: 59%
CC(=O)Nc1ccc(C(=O)Nc2ccc3c(c2)N(C2CCCC2)C(=O)c2ccccc2S3)cc1	active: -4%
CN(C(=O)c1ccccc1)C1CCS(=O)(=O)C1 (stereo not drawn)	inactive: 90%
Clc1ccccc1CN1CCc2nc(N3CCN(c4ncccn4)CC3)ncc2C1	inactive: 87%
